# Test results: the supplement of paper PMC8728848
# The other results are listed elsewhere or left out.
# Tests used:
# Assay in all cases: glycan array binding signal (z-score within array); higher = stronger binding
# Conditions in all cases: glycan notation: IUPAC condensed, linker removed
# [1] = target: Gal(b1-4)GlcNAc(b1-3)Gal(b1-4)GlcNAc(b1-2)[Gal(b1-4)GlcNAc(b1-3)Gal(b1-4)GlcNAc(b1-6)]Man(a1-6)[Gal(b1-4)GlcNAc(b1-3)Gal(b1-4)GlcNAc(b1-2)Man(a1-3)]Man(b1-4)GlcNAc(b1-4)GlcNAc
# Outline: (§1)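 Negative Z-scores can be read as non-binding. The Z-score is calculated within each array and then averaged across arrays of one protein sequence at different concentrations or buffers and across linkers. Arrays, 3228 in all, were curated from the Consortium for Functional Glycomics database and kept only where the protein sequence was available.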
# [2] = target: Gal(b1-4)GlcNAc(b1-3)Gal(b1-4)GlcNAc(b1-2)[Gal(b1-4)GlcNAc(b1-3)Gal(b1-4)GlcNAc(b1-6)]Man(a1-6)[Gal(b1-4)GlcNAc(b1-3)Gal(b1-4)GlcNAc(b1-2)Man(a1-3)]Man(b1-4)GlcNAc(b1-4)[Fuc(a1-6)]GlcNAc
# Outline: as §1
# [3] = target: Gal(b1-4)GlcNAc(b1-3)Gal(b1-4)GlcNAc(b1-3)Gal(b1-4)GlcNAc
# Outline: as §1
# [4] = target: Gal(b1-4)GlcNAc(b1-3)Gal(b1-4)GlcNAc(b1-3)Gal(b1-4)GlcNAc(b1-2)Man(a1-3)[Gal(b1-4)GlcNAc(b1-3)Gal(b1-4)GlcNAc(b1-3)Gal(b1-4)GlcNAc(b1-2)Man(a1-6)]Man(b1-4)GlcNAc(b1-4)GlcNAc
# Outline: as §1
# [5] = target: Gal(b1-4)GlcNAc(b1-3)Gal(b1-4)GlcNAc(b1-3)Gal(b1-4)GlcNAc(b1-2)Man(a1-3)[Gal(b1-4)GlcNAc(b1-3)Gal(b1-4)GlcNAc(b1-3)Gal(b1-4)GlcNAc(b1-2)Man(a1-6)]Man(b1-4)GlcNAc(b1-4)[Fuc(a1-6)]GlcNAc
# Outline: as §1
# [6] = target: Gal(b1-4)GlcNAc(b1-3)Gal(b1-4)GlcNAc(b1-3)Gal(b1-4)GlcNAc(b1-2)[Gal(b1-4)GlcNAc(b1-3)Gal(b1-4)GlcNAc(b1-3)Gal(b1-4)GlcNAc(b1-6)]Man(a1-6)[Gal(b1-4)GlcNAc(b1-3)Gal(b1-4)GlcNAc(b1-3)Gal(b1-4)GlcNAc(b1-2)Man(a1-3)]Man(b1-4)GlcNAc(b1-4)[Fuc(a1-6)]GlcNAc
# Outline: as §1
# [7] = target: Gal(b1-4)GlcNAc(b1-3)Gal(b1-4)GlcNAc(b1-3)Gal(b1-4)GlcNAc(b1-3)Gal(b1-4)GlcNAc(b1-2)Man(a1-3)[Gal(b1-4)GlcNAc(b1-3)Gal(b1-4)GlcNAc(b1-3)Gal(b1-4)GlcNAc(b1-3)Gal(b1-4)GlcNAc(b1-2)Man(a1-6)]Man(b1-4)GlcNAc(b1-4)GlcNAc
# Outline: as §1
# [8] = target: Gal(b1-4)GlcNAc(b1-3)Gal(b1-4)GlcNAc(b1-3)Gal(b1-4)GlcNAc(b1-3)Gal(b1-4)GlcNAc(b1-2)Man(a1-3)[Gal(b1-4)GlcNAc(b1-3)Gal(b1-4)GlcNAc(b1-3)Gal(b1-4)GlcNAc(b1-3)Gal(b1-4)GlcNAc(b1-2)Man(a1-6)]Man(b1-4)GlcNAc(b1-4)[Fuc(a1-6)]GlcNAc
# Outline: as §1
# [9] = target: Gal(b1-4)GlcNAc(b1-3)Gal(b1-4)GlcNAc(b1-3)Gal(b1-4)GlcNAc(b1-3)Gal(b1-4)GlcNAc(b1-2)[Gal(b1-4)GlcNAc(b1-3)Gal(b1-4)GlcNAc(b1-3)Gal(b1-4)GlcNAc(b1-3)Gal(b1-4)GlcNAc(b1-6)]Man(a1-6)[Gal(b1-4)GlcNAc(b1-3)Gal(b1-4)GlcNAc(b1-3)Gal(b1-4)GlcNAc(b1-3)Gal(b1-4)GlcNAc(b1-2)Man(a1-3)]Man(b1-4)GlcNAc(b1-4)[Fuc(a1-6)]GlcNAc
# Outline: as §1
# [10] = target: Gal(b1-4)GlcNAc(b1-3)Gal(b1-4)GlcNAc(b1-3)Gal(b1-4)GlcNAc(b1-3)Gal(b1-4)GlcNAc(b1-3)Gal(b1-4)GlcNAc(b1-2)Man(a1-3)[Gal(b1-4)GlcNAc(b1-3)Gal(b1-4)GlcNAc(b1-3)Gal(b1-4)GlcNAc(b1-3)Gal(b1-4)GlcNAc(b1-3)Gal(b1-4)GlcNAc(b1-2)Man(a1-6)]Man(b1-4)GlcNAc(b1-4)GlcNAc
# Outline: as §1
# [11] = target: Gal(b1-4)GlcNAc(b1-3)Gal(b1-4)GlcNAc(b1-3)Gal(b1-4)GlcNAc(b1-3)Gal(b1-4)GlcNAc(b1-3)Gal(b1-4)GlcNAc(b1-2)Man(a1-3)[Gal(b1-4)GlcNAc(b1-3)Gal(b1-4)GlcNAc(b1-3)Gal(b1-4)GlcNAc(b1-3)Gal(b1-4)GlcNAc(b1-3)Gal(b1-4)GlcNAc(b1-2)Man(a1-6)]Man(b1-4)GlcNAc(b1-4)[Fuc(a1-6)]GlcNAc
# Outline: as §1
# [12] = target: Gal(b1-4)GlcNAc(b1-3)Gal(b1-4)GlcNAc(b1-3)Gal(b1-4)GlcNAc(b1-3)Gal(b1-4)GlcNAc(b1-3)Gal(b1-4)GlcNAc(b1-2)[Gal(b1-4)GlcNAc(b1-3)Gal(b1-4)GlcNAc(b1-3)Gal(b1-4)GlcNAc(b1-3)Gal(b1-4)GlcNAc(b1-3)Gal(b1-4)GlcNAc(b1-6)]Man(a1-6)[Gal(b1-4)GlcNAc(b1-3)Gal(b1-4)GlcNAc(b1-3)Gal(b1-4)GlcNAc(b1-3)Gal(b1-4)GlcNAc(b1-3)Gal(b1-4)GlcNAc(b1-2)Man(a1-3)]Man(b1-4)GlcNAc(b1-4)[Fuc(a1-6)]GlcNAc
# Outline: as §1
# [13] = target: Gal(b1-4)GlcNAc(b1-3)Gal(b1-4)GlcNAc(b1-3)Gal(b1-4)GlcNAc(b1-3)Gal(b1-4)GlcNAc(b1-3)Gal(b1-4)GlcNAc(b1-3)Gal(b1-4)GlcNAc(b1-2)Man(a1-3)[Gal(b1-4)GlcNAc(b1-3)Gal(b1-4)GlcNAc(b1-3)Gal(b1-4)GlcNAc(b1-3)Gal(b1-4)GlcNAc(b1-3)Gal(b1-4)GlcNAc(b1-3)Gal(b1-4)GlcNAc(b1-2)Man(a1-6)]Man(b1-4)GlcNAc(b1-4)GlcNAc
# Outline: as §1
# [14] = target: Gal(b1-4)GlcNAc(b1-3)Gal(b1-4)GlcNAc(b1-3)GalNAc
# Outline: as §1
# [15] = target: Gal(b1-4)GlcNAc(b1-3)Gal(b1-4)GlcNAc(b1-3)[Gal(b1-4)GlcNAc(b1-3)Gal(b1-4)GlcNAc(b1-6)]GalNAc
# Outline: as §1
# [16] = target: Gal(b1-4)GlcNAc(b1-3)Gal(b1-4)GlcNAc(b1-6)[Gal(b1-3)]GalNAc
# Outline: as §1
# [17] = target: Gal(b1-4)GlcNAc(b1-3)Gal(b1-4)[Fuc(a1-3)]GlcNAc(b1-3)Gal(b1-4)[Fuc(a1-3)]GlcNAc
# Outline: as §1
# [18] = target: Gal(b1-4)GlcNAc(b1-3)GalNAc
# Outline: as §1
# [19] = target: Gal(b1-4)GlcNAc(b1-3)[Fuc(a1-3)GlcNAc(b1-6)]Gal(b1-4)Glc
# Outline: as §1
# [20] = target: Gal(b1-4)GlcNAc(b1-3)[Gal(b1-4)GlcNAc(b1-6)]Gal(b1-4)GlcNAc
# Outline: as §1
# [21] = target: Gal(b1-4)GlcNAc(b1-3)[GlcNAc(b1-6)]Gal(b1-4)GlcNAc
# Outline: as §1
# [22] = target: Gal(b1-4)GlcNAc(b1-6)Gal(b1-4)GlcNAc
# Outline: as §1
# [23] = target: Gal(b1-4)GlcNAc(b1-6)GalNAc
# Outline: as §1
# [24] = target: Gal(b1-4)GlcNAc(b1-6)[Gal(b1-3)]GalNAc
# Outline: as §1
# [25] = target: Gal(b1-4)GlcNAc(b1-6)[Gal(b1-4)GlcNAc(b1-3)]GalNAc
# Outline: as §1
# Gal(b1-4)GlcNAc6P = target: Gal(b1-4)GlcNAc6P
# Outline: as §1
# Gal(b1-6)Gal = target: Gal(b1-6)Gal
# Outline: as §1
# Gal3S(b1-3)GalNAc = target: Gal3S(b1-3)GalNAc
# Outline: as §1
# Gal3S(b1-3)GlcNAc = target: Gal3S(b1-3)GlcNAc
# Outline: as §1
# [26] = target: Gal3S(b1-3)[Fuc(a1-4)]GlcNAc
# Outline: as §1
# Gal3S(b1-4)Glc = target: Gal3S(b1-4)Glc
# Outline: as §1
# Gal3S(b1-4)Glc6S = target: Gal3S(b1-4)Glc6S
# Outline: as §1
# Gal3S(b1-4)GlcNAc = target: Gal3S(b1-4)GlcNAc
# Outline: as §1
# [27] = target: Gal3S(b1-4)[Fuc(a1-3)]Glc6S
# Outline: as §1
# [28] = target: Gal3S(b1-4)[Fuc(a1-3)]GlcNAc
# Outline: as §1
# [29] = target: Gal3S(b1-4)[Fuc(a1-3)]GlcNAc6S
# Outline: as §1
# Gal3S4S(b1-4)GlcNAc = target: Gal3S4S(b1-4)GlcNAc
# Outline: as §1
# Gal3S6S(b1-4)GlcNAc = target: Gal3S6S(b1-4)GlcNAc
# Outline: as §1
# Gal3S6S(b1-4)GlcNAc6S = target: Gal3S6S(b1-4)GlcNAc6S
# Outline: as §1
# Gal4S(b1-4)GlcNAc = target: Gal4S(b1-4)GlcNAc
# Outline: as §1
# Gal4S6S(b1-4)GlcNAc = target: Gal4S6S(b1-4)GlcNAc
# Outline: as §1
# Gal6P(b1-4)GlcNAc = target: Gal6P(b1-4)GlcNAc
# Outline: as §1
# Gal6S(b1-3)GlcNAc = target: Gal6S(b1-3)GlcNAc
# Outline: as §1
# Gal6S(b1-3)GlcNAc6S = target: Gal6S(b1-3)GlcNAc6S
# Outline: as §1
# Gal6S(b1-4)Glc = target: Gal6S(b1-4)Glc
# Outline: as §1
binder,measurement,setting,value
GS13846A-bth-444-19-444 (Bacteroides thetaiotaomicron) (protein) SCENEFDVSDKADSLISVTVNTLNNQAAYNVGETAQAELWIQRGGLKDASGKVQFVVDPLLLDSLNQEDKTNYELLPENCYEMTNTEFTVDKNELCGYITYHPEKILALSAYNETKYVLPLRLISNDLAINPARNTSFLAFTILEPIVHISNAGVYNINPDLTSTMDIQIGVPFTNKWDILCNLTEDLSLIDEYNQINKVNFTLLPENAYTAPESVTLQEGVSQITASYQLKNNLVPGNYILPIKIGSITASQGGVPNNSLVIDEESNVLFCIVKEGNKINKSGWEVIECSSEHAGNEATYMIDDNESTYWHCKFKNEAGSSVPPFHFIIDMKKEITIAQIDLLNRGDGAANNIKWVEFYASNNNSEWDKIGAGDFNDEGTRATFRYYVKSTKARYLKLIIPEGYGNNCPPAAIRELTVYGLEGNN,glycan array binding signal (z-score),[1],0.071
same,glycan array binding signal (z-score),[2],1.74
same,glycan array binding signal (z-score),[3],-0.124
same,glycan array binding signal (z-score),[4],0.954
same,glycan array binding signal (z-score),[5],0.103
same,glycan array binding signal (z-score),[6],-0.112
same,glycan array binding signal (z-score),[7],0.105
same,glycan array binding signal (z-score),[8],0.486
same,glycan array binding signal (z-score),[9],0.226
same,glycan array binding signal (z-score),[10],0.056
same,glycan array binding signal (z-score),[11],0.007
same,glycan array binding signal (z-score),[12],0.472
same,glycan array binding signal (z-score),[13],0.691
same,glycan array binding signal (z-score),[14],-0.139
same,glycan array binding signal (z-score),[15],0.372
same,glycan array binding signal (z-score),[16],-0.308
same,glycan array binding signal (z-score),[17],-0.223
same,glycan array binding signal (z-score),[18],-0.27
same,glycan array binding signal (z-score),[19],-0.326
same,glycan array binding signal (z-score),[20],-0.212
same,glycan array binding signal (z-score),[21],-0.252
same,glycan array binding signal (z-score),[22],-0.306
same,glycan array binding signal (z-score),[23],0.207
same,glycan array binding signal (z-score),[24],-0.328
same,glycan array binding signal (z-score),[25],0.135
same,glycan array binding signal (z-score),Gal(b1-4)GlcNAc6P,0.014
same,glycan array binding signal (z-score),Gal(b1-6)Gal,-0.188
same,glycan array binding signal (z-score),Gal3S(b1-3)GalNAc,0.108
same,glycan array binding signal (z-score),Gal3S(b1-3)GlcNAc,0.099
same,glycan array binding signal (z-score),[26],-0.373
same,glycan array binding signal (z-score),Gal3S(b1-4)Glc,-0.044
same,glycan array binding signal (z-score),Gal3S(b1-4)Glc6S,-0.27
same,glycan array binding signal (z-score),Gal3S(b1-4)GlcNAc,-0.112
same,glycan array binding signal (z-score),[27],0.416
same,glycan array binding signal (z-score),[28],-0.021
same,glycan array binding signal (z-score),[29],0.272
same,glycan array binding signal (z-score),Gal3S4S(b1-4)GlcNAc,0.033
same,glycan array binding signal (z-score),Gal3S6S(b1-4)GlcNAc,6.47
same,glycan array binding signal (z-score),Gal3S6S(b1-4)GlcNAc6S,6.71
same,glycan array binding signal (z-score),Gal4S(b1-4)GlcNAc,-0.402
same,glycan array binding signal (z-score),Gal4S6S(b1-4)GlcNAc,-0.089
same,glycan array binding signal (z-score),Gal6P(b1-4)GlcNAc,-0.323
same,glycan array binding signal (z-score),Gal6S(b1-3)GlcNAc,7.3
same,glycan array binding signal (z-score),Gal6S(b1-3)GlcNAc6S,6.28
same,glycan array binding signal (z-score),Gal6S(b1-4)Glc,3.68
